# Measurements published in PubChem BioAssay AID1345083 (National Center for Advancing Translational Sciences (NCATS), 2018).
# About 6,200 (6.6%) of roughly 94,000 compounds were called active. This list was built around the results that the source calls inconclusive (neither active nor inactive); the mix of calls is not that of the screen. The call rests on the fitted dose curve; in most records, active means well fitted inhibition curve with a large enough effect; inconclusive means small, poorly fitted or top-dose-only effect; inactive means flat fitted curve, though single readings scatter. Potencies of inconclusive entries are doubtful fits and often do not repeat.
# Test: Cytotoxic Profiling in HEK 293 Cell Line of Diverse Libraries Using Quantitative High-Throughput Screening; further: nearly all actives have a fitted effect of over 60% in size
# Conditions: HEK 293 viability, ATP luminescence (CellTiter-Glo), 48-72 h; activity change, negative = cytotoxicity: at 115 µM (top of the series) unless noted; series mostly up to 115 µM
# How it was run: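 Cytotoxicity was scored by loss of ATP-coupled luminescence (CellTiter-Glo) in HEK 293 cells. Compound treatment ran 48 or 72 hr at 37 degree Celsius, 5% CO2, 95% humidity.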
# On the % scale 0 is the no-effect control and ±100 the full control effect; potency means the concentration at half of the fitted maximal effect; tags describe the fitted curve by direction and shape.
Structure (SMILES),Potency,"activity change, negative = cytotoxicity",outcome
CCN1c2cc(C(=O)NCc3ccccc3Br)ccc2C(=O)N2CCCCC21 (configuration not stated),"inconclusive: 79.4 µM [inhibitor, partial curve, poor fit]",,
O=S(=O)(c1ccc2c(c1)OCCO2)N1CCCC(c2nc(CCOCC3CC3)no2)C1 (configuration not stated),"inconclusive: 89.1 µM [inhibitor, single point]",,
COCCN(CCOC)C(=O)C1CCc2ncc(-c3ccc(F)cc3)n2C1 (configuration not stated),,inactive: -5.3%,
Cc1ccc2nc(C3CCN(Cc4ccccc4)CC3)[nH]c(=O)c2c1,inactive,,
O=C1[C@H]2CN(Cc3cc(Cl)ccc3F)C[C@H]2C(=O)N1CCN1CCc2ccccc2C1,"inconclusive: 56.2 µM [inhibitor, partial curve, poor fit]",,
COc1ccc(-c2onc(C)c2C(=O)NCc2ccccc2)cc1,"inconclusive: 56.2 µM [inhibitor, partial curve, poor fit]",,
c1ccc(-c2cnc3n2C[C@H](CNCc2cccs2)OC3)cc1,"inconclusive: 112 µM [inhibitor, partial curve, poor fit]",,
CCC(Cn1cnc(-c2ccccc2)c1-c1ccc(C#N)cc1)N1CCN(C)CC1 (configuration not stated),active: 79.4 µM,,
Cn1cc(-c2cn(C)c(=O)n3cc(CNc4ccccc4)nc23)cn1,,inactive: -28.3% [at 172 µM],
COc1cccc(-c2cc(C(=O)NCC3CCCCC3)c3cnn(C)c3n2)c1,active: 39.8 µM,,
N#CC1CCN(C(=O)C2CCCN(Cc3cccc(-c4ccsc4)c3)C2)CC1 (configuration not stated),"inconclusive: 50.1 µM [inhibitor, partial curve, poor fit]",,
O=C(COc1ccc(Cl)cc1)N1CCC(Cc2nc(-c3ccccc3)no2)CC1,active: 39.8 µM,,
COc1cccc(-c2cnc3[nH]cc(CC(=O)NCc4cccnc4)c3c2)c1,"inconclusive: 112 µM [inhibitor, partial curve, poor fit]",,
Cc1cccc(C)c1-c1nc(C(=O)NCc2cccnc2)n2ccccc12,"inconclusive: 39.8 µM [inhibitor, full curve, poor fit]",,
COc1cccc(N2C(=O)NC(=NC3CCCCC3)C23CCN([S+](=O)([O-])c2cccc(OC)c2)C3)c1 (configuration not stated),inactive,,
CN1CC(=O)N(c2ccccc2F)Cc2c(NC3CCCC3)ncnc21,"inconclusive: 79.4 µM [inhibitor, partial curve, poor fit]",,
Cc1ccsc1-c1[nH]nc2ncc(-c3cccnc3)nc12,"inconclusive: 100 µM [inhibitor, partial curve]",,
COCC(=O)N1CCC2(CC1)CC(=O)N(c1ccccc1)c1ccccc1O2,,inactive: -23.4%,
COc1cccc(C(O)c2nc(C(=O)Nc3ccccc3)c(C)o2)c1 (configuration not stated),"inconclusive: 89.1 µM [inhibitor, partial curve, poor fit]",,
CNc1ncc(C(=O)N2CC[C@@](O)(COC)C(C)(C)C2)cn1,,inactive: 1.62%,
CC(=O)c1ccc(NC(=O)Cn2c(=O)n(-c3ccc(F)cc3)c(=O)c3c2cc(C)n3C)cc1,"inconclusive: 79.4 µM [inhibitor, single point]",,
COc1cccc(NC(=O)c2ccc3c(c2)NC(C)(COCCN(C)C)CO3)c1 (configuration not stated),"inconclusive: 126 µM [inhibitor, single point]",,
CC(NC(=O)C1(N2CCCCC2)Cc2ccccc2C1)c1cnn(C)c1 (configuration not stated),,inactive: -25%,

Structure (SMILES),Potency,"activity change, negative = cytotoxicity",outcome
O=C(Cc1ccc(Cl)cc1)N1C[C@@H](CN2CCCCC2)[C@@H](CO)C1,,inactive: -7.51%,
O=C1NCc2ccccc2CC12CCCN2Cc1cccc(Cl)c1 (configuration not stated),"inconclusive: 44.7 µM [inhibitor, partial curve, poor fit]",,
O=C(Nc1ccc2[nH]ccc2c1)c1ccc(-c2ncc3cnc(C4=CCOCC4)cn23)cc1,"inconclusive: 28.2 µM [inhibitor, full curve, poor fit]",,
CC(C)c1ccc(S(=O)(=O)N2CC(c3nc(-c4ccncc4)no3)C2)cc1,"inconclusive: 89.1 µM [inhibitor, partial curve, poor fit]",,
O=C(c1ccccc1)N1CCn2c(nn(-c3cccc(Cl)c3)c2=O)C1,,inactive: -22%,
O=C(c1cn(C2CN(Cc3ccc(F)cc3F)C2)nn1)N1CCOCC1,,inactive: 4.76%,
CC(C)OCCCNC(=O)C1CC(=O)N(c2n[nH]c3cccc(F)c23)C1 (configuration not stated),,inactive: -22.1%,
COc1ccc(CN2Cc3[nH]nc(-c4cccc(OC)c4OC)c3CC2=O)cc1,"inconclusive: 89.1 µM [inhibitor, partial curve, poor fit]",,
CN(C)CC1(O)CCC2(CCN(C(=O)c3ccccc3)CC2)CC1,"inconclusive: 100 µM [inhibitor, single point]",,
COc1cccc(CN2CC[C@@H]3C(=O)NCCCCCCN(Cc4ccncc4)[C@@H]3C2)c1OC,,inactive: -23.2%,
COc1ccc(-c2c(C(=O)NCCc3ccccc3)nc3sccn23)cc1,"inconclusive: 89.1 µM [inhibitor, single point]",,
CCCn1cc(-c2ccncc2)cc1C(=O)NC(C)c1ccc(OC)cc1 (configuration not stated),"inconclusive: 56.2 µM [inhibitor, partial curve, poor fit]",,
COc1ccc(-c2cccc(C(=O)NCc3ccccc3Cl)c2)nn1,"inconclusive: 79.4 µM [inhibitor, partial curve, poor fit]",,
COc1cccc(C(=O)N2CCC3(CC2)OCC(C(=O)N2CCCC2)N3C(=O)c2ccccc2C)c1 (configuration not stated),"inconclusive: 89.1 µM [inhibitor, single point]",,
CC1=C[C@@H](CN2CCN(c3ccc(F)cc3)CC2)[C@H](C(C)C)C[C@H]1Cc1nnc(-c2cncn2C)o1,active: 22.4 µM,,
CCN1c2cc(C(=O)Nc3ccc(N(C)C)cc3)ccc2C(=O)N2CCCCC21 (configuration not stated),active: 44.7 µM,,
Cc1ccc(C)c(OCC(=O)c2ccc3c(c2)N(CCCC(=O)N2CCCC2)C(=O)CO3)c1C,"inconclusive: 35.5 µM [inhibitor, partial curve, poor fit]",,
Cc1ccsc1-c1[nH]nc2ncc(-c3cccc(CO)c3)nc12,active: 79.4 µM,,
COc1ccc(-n2nc(C)c([C@H]3C=C[C@@H](OC(=O)Nc4cccc(F)c4)C3)c2C)cc1,active: 20 µM,,
CC(C)(C)CC(=O)N1CCN2C(=O)c3cc(-c4ccccc4)ccc3NC(=O)[C@H]2C1,active: 100 µM,,
COc1ccc(Cl)cc1-c1ccc2c(c1)C(=O)N1CCN(C(=O)CN)C[C@H]1C(=O)N2,"inconclusive: 70.8 µM [inhibitor, partial curve, poor fit]",,
COc1ccc(CN[C@@H]2CCC[C@@H](C(=O)NC3CCOCC3)CC(=O)N(C)C2)cc1,,inactive: -17.7% [at 172 µM],
CN1CC2(CCCN(C(=O)c3cn(C)c4ccccc34)CC2)OC1=O (configuration not stated),,inactive: 1.52%,

Structure (SMILES),Potency,"activity change, negative = cytotoxicity",outcome
COCCN1CC2(CCC1=O)CCN(C(=O)C1CC=CCC1)CC2 (configuration not stated),,inactive: 2.63%,
O=C(Nc1cc(-c2cccnc2)nn1-c1ccccc1)C1CC1,,,inactive [at 172 µM]
COc1ccc(Cl)cc1C(C(=O)O)N1CCCN(c2ncccn2)CC1 (configuration not stated),,inactive: 1.46%,
COc1ccc2ccc(OCc3nc(C(=O)N4CCCC(C)(CO)C4)co3)cc2c1 (configuration not stated),"inconclusive: 44.7 µM [inhibitor, partial curve, poor fit]",,
Cc1ccccc1-c1cc(-c2c(C)noc2C)c2cncn2c1,active: 44.7 µM,,
CC(C)n1cc(CN2C[C@@H](COCC(N)=O)[C@H](c3ccncc3)C2)cn1,"inconclusive: 100 µM [inhibitor, single point]",,
Cc1ccc(C(=O)N2CC[C@@H]3COCCN(C)[C@@H]3C2)s1,,inactive: -6.14%,
CCN1c2cc(C(=O)Nc3ccccc3)ccc2C(=O)N2CCCCC21 (configuration not stated),"inconclusive: 44.7 µM [inhibitor, partial curve, poor fit]",,
O=C(Nc1ccccc1)C1=NO[C@@H]2CN(c3ccnc(N4CCOCC4)c3)C[C@H]12,"inconclusive: 44.7 µM [inhibitor, full curve]",,
CC1CCCN(C(=O)Cn2ccn3nc(-c4ccc(F)cc4)c(CO)c3c2=O)C1 (configuration not stated),"inconclusive: 70.8 µM [inhibitor, partial curve, poor fit]",,
COc1cccc(NC(=O)c2ccnc(-c3nnc4ccc(Nc5ccccc5)nn34)c2)c1,active: 39.8 µM,,
CN1C(=O)CCC2(CNC(=O)c3ccsc3)CCC=C12 (configuration not stated),,inactive: 1.81%,
CN1CCC(NC(=O)c2nc3nc(-c4ccccc4)c(-c4cccc(O)c4)cc3n2C)CC1,active: 35.5 µM,,
O=C(Nc1ccc2c(c1)CN(Cc1ccc(Cl)cc1)C(=O)CO2)c1ccccc1,"inconclusive: 50.1 µM [inhibitor, partial curve, poor fit]",,
O=C(Nc1cccc(F)c1)N1C[C@@H]2C[C@H](C1)c1c(-c3ccc4ccccc4c3)ccc(=O)n1C2,"inconclusive: 50.1 µM [inhibitor, partial curve, poor fit]",,
O=C(NCCc1ccc(F)cc1)C1CCN(C(=O)c2ccc(-c3cccs3)cc2)CC1,"inconclusive: 39.8 µM [inhibitor, partial curve, poor fit]",,
O=C1NC(=NC2CCCC2)C2(CCN(Cc3ccsc3)C2)N1c1cccnc1 (configuration not stated),"inconclusive: 22.4 µM [inhibitor, full curve, poor fit]",,
CC[C@@]1(O)CCN(C(=O)c2cccc(-c3cccc(OC)c3)c2)C[C@H]1O,,inactive: -20.6%,
O=C(Cc1ccccc1Cl)N1CCN(c2cc(-c3ccccc3)[nH]n2)CC1,"inconclusive: 17.8 µM [inhibitor, full curve, poor fit]",,
Cc1nnc(-c2cc(-c3ccsc3)ccn2)n1C(C)C,"inconclusive: 126 µM [inhibitor, partial curve, poor fit]",,
O=C(NC1CCCN(c2ccnc3ccnn23)C1)c1ccc(Cl)cc1 (configuration not stated),active: 39.8 µM,,
